# According to the supplement of paper PMC12355420:
# Structures can show the parent of a compound that is named as a salt. This is one part of the list. Rule as the data show it: active = 0.5 or less and inactive = the rest. Single values are uncertain, as repeats are few or missing.
# System: HeLa VPS33A R498W KI + HA-SDC1-FLAG;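 also: HA-SDC1 level read out by In-Cell Western staining with an anti-HA antibody against the N-terminal tag, screening FDA-approved library drugs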
# Assay: relative GAG core protein HA-SDC1 amount per cell number vs DMSO (fraction of DMSO); higher = more SDC1 (GAG core protein)
# Settings: 50 µM; 24 h
row,Structure (SMILES),relative GAG core protein HA-SDC1 amount per cell number
1,c1cc(CN2CCCNCCNCCCNCC2)ccc1CN1CCCNCCNCCCNCC1 [Plerixafor (AMD3100)],inactive: 1.2
2,Nc1ccn([C@@H]2CS[C@H](CO)O2)c(=O)n1 [Lamivudine],inactive: 1.26
3,C[C@@H]1CC(=O)NN=C1c1ccc(NN=C(C#N)C#N)cc1 [Levosimendan],active: 0.209
4,C(=C\c1ccccc1)/CN1CCN(C(c2ccccc2)c2ccccc2)CC1 [Cinnarizine],inactive: 0.973
5,C[C@@](Cc1ccc(O)c(O)c1)(NN)C(=O)O [Carbidopa],inactive: 0.79
6,"CC[C@H](Nc1ncnc2[nH]cnc12)c1nc2cccc(F)c2c(=O)n1-c1ccccc1 [CAL-101 (Idelalisib, GS-1101)]",inactive: 0.875
7,Cn1ccnc1S [Methimazole],inactive: 1.15
8,C[C@]12CC[C@@H]3c4ccc(O)cc4CC[C@H]3[C@@H]1CC[C@@H]2O [Estradiol],active: 0.404
9,O=c1n(CCCN2CCN(c3cccc(Cl)c3)CC2)nc2ccccn12 [Trazodone HCl],inactive: 0.828
10,Cc1cccc(-c2nn3c(c2-c2ccnc4ccc(C(N)=O)cc24)CCC3)n1,inactive: 1.56
11,C#Cc1cccc(Nc2ncnc3cc(OCCOC)c(OCCOC)cc23)c1 [Erlotinib Hydrochloride],inactive: 1.24

# System: HeLa VPS33A KO + NLuc-VPS33A R498W;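 also: screen of an FDA-approved drug library, NanoLuc luminescence read after lysing the treated cells, taken as a measure of mutant VPS33A protein stability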
# Assay: relative mutant VPS33A R498W amount (NanoLuc luminescence) vs DMSO (fraction of DMSO); HeLa model of a glycosaminoglycan (GAG) storage disease; KI is knock-in and KO knock-out; SDC1 is syndecan 1; higher = higher mutant VPS33A level
# Settings: 50 µM; 24 h
row,Structure (SMILES),relative mutant VPS33A R498W amount
1,CN(C)C(=O)N[C@H]1CC[C@H](CCN2CCN(c3cccc(Cl)c3Cl)CC2)CC1 [Cariprazine],0.314
2,CCS(=O)(=O)CCn1c([N+](=O)[O-])cnc1C [Tinidazole],1.19
3,CCOC(=O)[C@H](CCc1ccccc1)N[C@@H](C)C(=O)N1CCC[C@H]1C(=O)O [Enalapril Maleate],1.38
4,C[C@@H]1O[C@@H](OC[C@H]2O[C@@H](Oc3c(-c4ccc(O)c(O)c4)oc4cc(O)cc(O)c4c3=O)[C@H](O)[C@@H](O)[C@@H]2O)[C@H](O)[C@H](O)[C@H]1O [Rutin],1.12
5,OCC(CO)N[C@H]1C[C@](O)(CO)[C@@H](O)[C@H](O)[C@H]1O [Voglibose],1.26
6,CCN1CCN(c2cc(-c3ccc(F)cc3)c3c(n2)CCCCCC3)CC1 [Blonanserin],1.18
7,C[C@@H]1NC(=O)[C@@H](N)CNC(=O)[C@H](C2CCNC(=N)N2)NC(=O)/C(=C/NC(N)=O)NC(=O)[C@H](CNC(=O)CC(N)CCCN)NC1=O.N=C1NCC[C@H]([C@@H]2NC(=O)/C(=C/NC(N)=O)NC(=O)[C@H](CNC(=O)C[C@@H](N)CCCN)NC(=O)[C@H](CO)NC(=O)[C@@H](N)CNC2=O)N1 [Capreomycin Sulfate],0.974
8,Cc1ncc(C[n+]2csc(CCO)c2C)c(N)n1 [Thiamine HCl (Vitamin B1)],1.08
9,Cc1nc(NC(=O)N2CCC[C@H]2C(N)=O)sc1-c1ccnc(C(C)(C)C(F)(F)F)c1,0.128
10,Cc1ccc2c(c1)c1c(n2CCc2ccc(C)nc2)CCN(C)C1 [Latrepirdine],1.02
11,CC[N+](C)(C)c1cccc(O)c1 [Edrophonium (chloride)],1.4
12,OC[C@H]1O[C@@](CO)(O[C@H]2O[C@H](CO)[C@@H](O)[C@H](O)[C@H]2O)[C@@H](O)[C@@H]1O [sucrose],1.21
13,C=C[C@H]1CN2CC[C@H]1C[C@H]2[C@H](O)c1ccnc2ccc(OC)cc12 [Quinine],1.22
14,CCn1cc(C(=O)O)c(=O)c2ccc(C)nc21 [Nalidixic acid],0.986
15,CO/N=C(\C(=O)N[C@@H]1C(=O)N2C(C(=O)O)=C(CSC(=O)c3ccco3)CS[C@H]12)c1csc(N)n1 [Ceftiofur HCl],1.6
16,Cc1onc(-c2ccccc2)c1C(=O)N[C@@H]1C(=O)N2[C@@H]1SC(C)(C)[C@@H]2C(=O)O [Oxacillin sodium monohydrate],1.01
17,Oc1cc(O)c(Cl)cn1 [Gimeracil],1.05
18,CC(C)NCC(O)COc1cccc2ccccc12 (stereo not drawn) [Propranolol HCl],0.481
19,C[C@H](N)C(=O)O [L-Alanine],1.09
20,COc1cc(C2Oc3cc([C@H]4Oc5cc(O)cc(O)c5C(=O)[C@@H]4O)ccc3OC2CO)ccc1O (stereo partly drawn) [Silymarin],0.573
21,N[C@@H](Cc1cc(I)c(Oc2ccc(O)c(I)c2)c(I)c1)C(=O)O [Liothyronine Sodium],0.688
22,N[C@@H]1CN(c2c(F)cc3c(=O)c(C(=O)O)cn([C@@H]4C[C@@H]4F)c3c2Cl)CC12CC2 [Sitafloxacin Hydrate],2.25
